# Results published in the supplement of paper PMC8728848.
# This is one part of the list.
# B1: UDA (Urtica dioica), P11218 (protein)
# chain: MMMRFLSAVVIMSSAMAVGLVSAQRCGSQGGGGTCPALWCCSIWGWCGDSEPYCGRTCENKCWSGERSDHRCGAAVGNPPCGQDRCCSVHGWCGGGNDYCSGSKCQYRCSSSVRGPRVALSGNSTANSIGNVVVTEPLFDQMFSHRKDCPSQGFYSYHSFLVAAESFPAFGTIGDVATRKREVAAFLAHISQATSGERSDVENPHAWGLCHINTTTVTENDFCTSSDWPCAAGKKYSPRGPIQLTHNFNYGLAGQAIGEDLIQNPDLVEKDPIISFKTALWFWMSQHDNKPSCHDIVLNANSAANRIPNKGVIGNIISRAFGHDDFAVRSSSIGFYKRYCDMLGVSYGHDLKYWFDNTPSSEFQRIQMRVAA
# What was measured:
# Test in all cases: glycan array binding signal (z-score within array); higher = stronger binding
# Details in all cases: glycan notation: IUPAC condensed, linker removed
# [1] = target: Fuc(a1-2)Gal
# Procedure, shortened: (§1)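 Glycan array data came from 3228 arrays in the Consortium for Functional Glycomics database, and only arrays with an available protein sequence were kept. Glycan names were put into IUPAC-condensed notation, and columns mapping to the same glycan were averaged. The binding signal is a within-array Z-score, averaged across arrays of one protein sequence run at different concentrations or buffers and across linkers. A negative Z-score can be read as non-binding.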
# [2] = target: Fuc(a1-2)Gal(b1-3)GalNAc
# Procedure, shortened: as §1
# [3] = target: Fuc(a1-2)Gal(b1-3)GalNAc(a1-3)[Fuc(a1-2)]Gal(b1-4)Glc
# Procedure, shortened: as §1
# [4] = target: Fuc(a1-2)Gal(b1-3)GalNAc(a1-3)[Fuc(a1-2)]Gal(b1-4)GlcNAc
# Procedure, shortened: as §1
# [5] = target: Fuc(a1-2)Gal(b1-3)GalNAc(b1-3)Gal
# Procedure, shortened: as §1
# [6] = target: Fuc(a1-2)Gal(b1-3)GalNAc(b1-3)Gal(a1-4)Gal(b1-4)Glc
# Procedure, shortened: as §1
# [7] = target: Fuc(a1-2)Gal(b1-3)GalNAc(b1-4)[Neu5Ac(a2-3)]Gal(b1-4)Glc
# Procedure, shortened: as §1
# [8] = target: Fuc(a1-2)Gal(b1-3)GlcNAc
# Procedure, shortened: as §1
# [9] = target: Fuc(a1-2)Gal(b1-3)GlcNAc(b1-2)Man(a1-3)[Fuc(a1-2)Gal(b1-3)GlcNAc(b1-2)Man(a1-6)]Man(b1-4)GlcNAc(b1-4)GlcNAc
# Procedure, shortened: as §1
# [10] = target: Fuc(a1-2)Gal(b1-3)GlcNAc(b1-2)Man(a1-3)[Fuc(a1-2)Gal(b1-3)GlcNAc(b1-2)Man(a1-6)]Man(b1-4)GlcNAc(b1-4)[Fuc(a1-6)]GlcNAc
# Procedure, shortened: as §1
# [11] = target: Fuc(a1-2)Gal(b1-3)GlcNAc(b1-3)Gal(b1-4)Glc
# Procedure, shortened: as §1
# [12] = target: Fuc(a1-2)Gal(b1-3)GlcNAc(b1-3)GalNAc
# Procedure, shortened: as §1
# [13] = target: Fuc(a1-2)Gal(b1-3)GlcNAc(b1-3)[Fuc(a1-2)Gal(b1-3)GlcNAc(b1-6)]GalNAc
# Procedure, shortened: as §1
# [14] = target: Fuc(a1-2)Gal(b1-3)GlcNAc(b1-3)[Gal(b1-4)GlcNAc(b1-6)]Gal(b1-4)Glc
# Procedure, shortened: as §1
# [15] = target: Fuc(a1-2)Gal(b1-3)GlcNAc(b1-3)[Neu5Ac(a2-6)Gal(b1-4)GlcNAc(b1-6)]Gal(b1-4)Glc
# Procedure, shortened: as §1
# [16] = target: Fuc(a1-2)Gal(b1-3)GlcNAc6S
# Procedure, shortened: as §1
# [17] = target: Fuc(a1-2)Gal(b1-3)[Fuc(a1-4)]GlcNAc
# Procedure, shortened: as §1
# [18] = target: Fuc(a1-2)Gal(b1-3)[Fuc(a1-4)]GlcNAc(b1-2)Man(a1-3)[Fuc(a1-2)Gal(b1-3)[Fuc(a1-4)]GlcNAc(b1-2)Man(a1-3)]Man(b1-4)GlcNAc(b1-4)GlcNAc
# Procedure, shortened: as §1
# [19] = target: Fuc(a1-2)Gal(b1-3)[Fuc(a1-4)]GlcNAc(b1-2)Man(a1-3)[Fuc(a1-2)Gal(b1-3)[Fuc(a1-4)]GlcNAc(b1-2)Man(a1-6)]Man(b1-4)GlcNAc(b1-4)[Fuc(a1-6)]GlcNAc(b1-4)[Fuc(a1-6)]GlcNAc
# Procedure, shortened: as §1
# [20] = target: Fuc(a1-2)Gal(b1-3)[Fuc(a1-4)]GlcNAc(b1-3)[Fuc(a1-3)[Gal(b1-4)]GlcNAc(b1-6)]Gal(b1-4)Glc
# Procedure, shortened: as §1
# [21] = target: Fuc(a1-2)Gal(b1-3)[Fuc(a1-4)]GlcNAc(b1-3)[Gal(b1-4)GlcNAc(b1-6)]Gal(b1-4)Glc
# Procedure, shortened: as §1
# [22] = target: Fuc(a1-2)Gal(b1-4)Fuc(a1-3)]GlcNAc(b1-2)Man(a1-3)[Fuc(a1-2)Gal(b1-4)[Fuc(a1-3)]GlcNAc(b1-2)Man(a1-6)]Man(b1-4)GlcNAc(b1-4)GlcNAc
# Procedure, shortened: as §1
# [23] = target: Fuc(a1-2)Gal(b1-4)Glc
# Procedure, shortened: as §1
# [24] = target: Fuc(a1-2)Gal(b1-4)Glc6S
# Procedure, shortened: as §1
# [25] = target: Fuc(a1-2)Gal(b1-4)GlcNAc
# Procedure, shortened: as §1
# [26] = target: Fuc(a1-2)Gal(b1-4)GlcNAc(b1-2)Man
# Procedure, shortened: as §1
# [27] = target: Fuc(a1-2)Gal(b1-4)GlcNAc(b1-2)Man(a1-3)[Fuc(a1-2)Gal(b1-4)GlcNAc(b1-2)Man(a1-6)]Man(b1-4)GlcNAc(b1-4)GlcNAc
# Procedure, shortened: as §1
# [28] = target: Fuc(a1-2)Gal(b1-4)GlcNAc(b1-2)Man(a1-3)[Fuc(a1-2)Gal(b1-4)GlcNAc(b1-2)Man(a1-6)]Man(b1-4)GlcNAc(b1-4)[Fuc(a1-6)]GlcNAc
# Procedure, shortened: as §1
# [29] = target: Fuc(a1-2)Gal(b1-4)GlcNAc(b1-2)[Fuc(a1-2)Gal(b1-4)GlcNAc(b1-4)]Man(a1-3)[Fuc(a1-2)Gal(b1-4)GlcNAc(b1-2)Man(a1-6)]Man(b1-4)GlcNAc(b1-4)GlcNAc
# Procedure, shortened: as §1
# [30] = target: Fuc(a1-2)Gal(b1-4)GlcNAc(b1-3)Gal(b1-4)GlcNAc
# Procedure, shortened: as §1
binder,measurement,setting,value
B1,glycan array binding signal (z-score),[1],-0.188
same,glycan array binding signal (z-score),[2],-0.181
same,glycan array binding signal (z-score),[3],-0.174
same,glycan array binding signal (z-score),[4],-0.177
same,glycan array binding signal (z-score),[5],-0.215
same,glycan array binding signal (z-score),[6],-0.215
same,glycan array binding signal (z-score),[7],-0.208
same,glycan array binding signal (z-score),[8],-0.188
same,glycan array binding signal (z-score),[9],-0.13
same,glycan array binding signal (z-score),[10],-0.17
same,glycan array binding signal (z-score),[11],-0.175
same,glycan array binding signal (z-score),[12],-0.179
same,glycan array binding signal (z-score),[13],-0.168
same,glycan array binding signal (z-score),[14],-0.109
same,glycan array binding signal (z-score),[15],-0.169
same,glycan array binding signal (z-score),[16],-0.182
same,glycan array binding signal (z-score),[17],-0.185
same,glycan array binding signal (z-score),[18],-0.156
same,glycan array binding signal (z-score),[19],-0.171
same,glycan array binding signal (z-score),[20],-0.173
same,glycan array binding signal (z-score),[21],-0.071
same,glycan array binding signal (z-score),[22],-0.138
same,glycan array binding signal (z-score),[23],-0.187
same,glycan array binding signal (z-score),[24],-0.172
same,glycan array binding signal (z-score),[25],-0.177
same,glycan array binding signal (z-score),[26],-0.18
same,glycan array binding signal (z-score),[27],-0.151
same,glycan array binding signal (z-score),[28],-0.157
same,glycan array binding signal (z-score),[29],-0.161
same,glycan array binding signal (z-score),[30],-0.076
